Measurements taken from patent US20220153844A1 (INVENRA, published 2022).

Biological target: T1, mouse CD86 ligand (mouse, UniProt P42082 24-244, limits assumed)
T1 sequence (looked up): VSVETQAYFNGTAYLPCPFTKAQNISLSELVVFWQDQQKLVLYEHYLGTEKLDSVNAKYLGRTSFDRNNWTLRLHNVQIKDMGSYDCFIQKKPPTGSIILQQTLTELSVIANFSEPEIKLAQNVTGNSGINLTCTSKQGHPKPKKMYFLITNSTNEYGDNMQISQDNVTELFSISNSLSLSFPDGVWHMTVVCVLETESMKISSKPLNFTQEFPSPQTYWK
Experiment: BLI, biotinylated mouse CTLA4 (B-mTarget2) on streptavidin sensor, then antibody or CD86 ligand

binding result: binds
B1: mouse CTLA4 (target of muSNIPER and anti-muCTLA4) (receptor)
chain: not shown
modifications: biotinylated in the blocking assay
notes: also called Target 2
